The campaign covered roughly 110,000 compounds. About 230 (0.21%) showed an effect of 50% or more. The list shows a part of the results.
Each compound was assayed against DPAP1 (Plasmodium falciparum, UniProt Q8IIJ9) (assay: primary screen, percent inhibition; read by cleavage of a fluorogenic dipeptide substrate; higher = more effect of the substance).
Parameters: species or system P. falciparum D10 trophozoite lysates; single well
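Note: 30 min substrate incubation versus DMSO and 10 µM JCP410 controls.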

Chain of DPAP1 (Q8IIJ9 whole entry, looked up): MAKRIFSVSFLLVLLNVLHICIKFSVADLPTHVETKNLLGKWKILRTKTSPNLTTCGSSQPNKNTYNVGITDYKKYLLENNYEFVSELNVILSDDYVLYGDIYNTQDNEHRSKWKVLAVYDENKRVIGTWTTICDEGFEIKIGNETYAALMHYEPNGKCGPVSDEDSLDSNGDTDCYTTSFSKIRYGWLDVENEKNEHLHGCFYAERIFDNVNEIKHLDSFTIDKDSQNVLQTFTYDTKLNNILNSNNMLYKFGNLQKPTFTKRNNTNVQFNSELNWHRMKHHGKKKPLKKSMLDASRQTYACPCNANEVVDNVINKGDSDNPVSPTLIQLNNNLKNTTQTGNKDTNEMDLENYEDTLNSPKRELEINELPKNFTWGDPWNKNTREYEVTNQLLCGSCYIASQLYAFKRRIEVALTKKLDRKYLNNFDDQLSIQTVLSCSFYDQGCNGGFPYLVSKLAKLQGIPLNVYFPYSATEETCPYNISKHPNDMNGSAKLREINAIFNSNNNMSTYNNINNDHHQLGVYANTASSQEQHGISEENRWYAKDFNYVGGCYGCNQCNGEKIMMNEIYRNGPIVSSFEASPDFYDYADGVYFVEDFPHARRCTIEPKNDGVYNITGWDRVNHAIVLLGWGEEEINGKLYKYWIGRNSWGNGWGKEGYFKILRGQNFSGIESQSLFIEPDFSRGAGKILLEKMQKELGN

Compound	% Inhibition @ 10 uM [%]
Cc1ccc2cc3cc(C(=O)N4CCCCC4C)oc3nc2c1 (stereo not shown)	-5.22
CCCN1C(=O)[C@@H]2[C@H](C1=O)[C@H](C(=O)c1ccccc1)N1c3ccccc3C=C[C@@H]21	0.161
CCOc1cc(C2C3=C(O)CC(C)(C)CC3=Nc3ccc4ncccc4c32)ccc1O (stereo not shown)	-2.88
Cc1ccccc1N1C(=O)S/C(=C2\C(=O)Nc3ccccc32)C1=O	1.92
Cc1cc(N2C(=O)C(O)=C(C(=O)c3ccco3)C2c2ccc(C(C)(C)C)cc2)no1 (stereo not shown)	17.4
O=C(O)c1cn(C2CC2)c2cc(N3CCOCC3)c(F)cc2c1=O	3.69
c1ccc2c(c1)CCN(CCCNc1nc3ccccc3n3nnnc13)C2	4.33
COc1ccc(C(=O)Nc2cccc(C)c2)cc1OC	1.48
CC1=CC2=NC(=O)/C(=C\c3ccc(OCCCOc4ccc(Cl)cc4)cc3)C(=N)N2O1	-5.1
O=C1CCCC2=C1C(c1ccc(Cl)cc1Cl)C1=C(CCCC1=O)O2	-1.03
CCOP(C)(=O)CN1CCCC1C(=O)OC (stereo not shown)	0.716
Cc1nc2ccccc2nc1SCC(=O)O	1.05
N#CC1=C(N)Oc2[nH]nc(-c3cccs3)c2C1c1ccc(F)c(Br)c1 (stereo not shown)	-1.06
COc1ccc(C(=O)Nc2cccc(NC(=O)CCc3ccccc3)c2)cc1OC	-5.13
O=S(=O)(c1ccccc1F)N1CCC(c2nc3ccccc3s2)CC1	-4.67
CCC(CC)C(=O)Nc1c(-c2ccccc2)nc2cc(C)ccn12	7.85
COc1cccc(C2=NS(=O)(=O)N(C)C(C(=O)N3CCCC3)=C2)c1	3.92
CCOc1ccc(/C=C2\N=C(c3cccs3)OC2=O)cc1	-2.5
COc1ccccc1-c1coc2c(CN(C)C3CCCCC3)c(O)ccc2c1=O	23.4
OCC1CCCN1CC1CCCCC1 (stereo not shown)	-1.64
COc1ccc(CNS(=O)(=O)c2ccc(Cl)c(Cl)c2OC)cc1	6.35
O=[N+]([O-])c1ccc(N2CCN(Cc3ccccc3)CC2)c([N+](=O)[O-])c1	-3.03
COc1ccc(-c2noc(C)n2)cc1	-1.71
Cc1ccc(C(=O)O/N=C(\N)c2ccncc2)cc1Cl	-1.25
COc1ccc(/C=C/C(=O)N(Cc2ccccc2F)C2CCS(=O)(=O)C2)cc1 (stereo not shown)	5.17

Compound	% Inhibition @ 10 uM [%]
Cc1ccc(CN(CC(=O)Nc2ccc(Cl)cc2)S(=O)(=O)c2ccccc2)cc1	6.18
O=CNC1CCCc2c1[nH]c1ccc(Cl)cc21 (stereo not shown)	2.13
CCS(=O)(=O)c1nc2ccccc2n1CCOc1ccc(Cl)cc1	0.0539
CCCC1=Nc2nc(C)nn2C(c2cccnc2)/C1=C(/O)OCC (stereo not shown)	-1.85
Cc1ccc(-c2noc(-c3nnn(-c4cccc(C)c4C)c3N)n2)cc1	5.22
CCOc1ccc(Cc2nnc(SC(C)C(=O)O)n2C)cc1 (stereo not shown)	3.27
Cc1ccccc1OCC(=O)N1CCCc2ccccc21	2.64
CCOC(=O)c1c(-c2ccc(Cl)cc2)nn2c1NCN(Cc1ccco1)C2	-2.88
COC(=O)[C@@H](CC(C)C)NC(=O)[C@@H]1CCCN1C#N	3.66
CC(CCc1ccccc1)NC(=O)CCc1cn(C)c2ccccc12 (stereo not shown)	-3.15
Cc1c(Br)c(=O)oc2c(Br)c(O)ccc12	-5.03
CCc1c(C)sc(NC(=O)C2CCC2)c1C#N	-2.53
CN1CCC(N(C)Cc2cccc(Cl)c2)CC1	-2.81
CCC1CCCCN1CCCNC(=O)C1CCCN(c2ncnc3c2nc2n3CCCCC2)C1 (stereo not shown)	-3.22
CCc1c(C)sc(NC(=O)c2cccc(Br)c2)c1C#N	16.6
Cc1cccc(C(=O)Nc2ccc(S(=O)(=O)N3CCC(C)CC3)cc2)c1	1.64
NC(=O)c1c(NC(=O)c2cc(Cl)ccc2Cl)sc2c1CCC2	-6.2
OC1CCCN(Cc2cccc(F)c2)C1 (stereo not shown)	-3.56
CCOC(=O)c1[nH]c2ccc(OC)cc2c1NC(=S)N1CCOCC1	-6.08
Cc1ccc(Oc2ccc(NC(=O)CCC(=O)O)cc2)cc1C	-0.473
CN(C)CCNc1nc(-c2ccc(Cl)cc2)nc2ccccc12	-0.69
COC(=O)C(C)NC(=O)COc1ccc([N+](=O)[O-])cc1 (stereo not shown)	-5.38
Cc1ccccc1C1=NC(C(F)(F)F)(C(F)(F)F)N=C(N2CCOCC2)O1	1.51
Fc1cccc(CN2CCN(Cc3ccco3)CC2)c1	-5.85
Cc1ccc(NC(=O)c2c(-c3ccccc3)noc2C)cc1	-1.89

Compound	% Inhibition @ 10 uM [%]
Cn1c(=O)c(=O)[nH]c2c(=O)oc3ccc(S(=O)(=O)NCCc4ccc(Cl)cc4)cc3c21	3.07
CCOC(=O)c1cc(-c2ccc(F)cc2)n(CC(=O)NCCN(C)C)c1C	-5.47
Cc1cc(NC(=O)C2c3ccccc3C(=O)N(CC(C)C)C2c2cccs2)no1 (stereo not shown)	1.69
COc1ccc(Br)c(-c2nnc(CS(=O)(=O)c3ccccc3)o2)c1	6.37
COc1cc(C(=O)Nc2ccc(F)cc2C)ccc1OC(F)F	0.956
CC(C)CN1C(=O)C(NC(=O)C2CC2)(C(F)(F)F)C2=C1CC(C)(C)CC2=O (stereo not shown)	-1.59
CC(=O)NC(C)c1ccc(Cl)c(Cl)c1 (stereo not shown)	0.219
Cc1noc(/C=C/N(C)C)c1S(=O)(=O)N1CCC(C(=O)O)CC1	-0.458
Cc1ccc(-c2cc(C(=O)O)c3cc(Br)ccc3n2)cc1	2.95
Cc1cccc2sc(NC(=O)C(C)Oc3ccccc3)nc12 (stereo not shown)	-2.65
Cc1ccc(OCC(=O)NCc2ccc(F)cc2)cc1C	8.08
Clc1ccccc1CN1CCN(CC2CC=CCC2)CC1 (stereo not shown)	1.81
CN(Cc1ccco1)S(=O)(=O)c1nnc(NC(=O)C23C[C@H]4C[C@@H](C2)C[C@@H](C3)C4)s1	6.06
COc1ccc(OC)c(CCNC(=O)CCc2cn(C)c3ccccc23)c1	-0.256
C=CCN1C(=O)N/C(=C\c2cccc(OC)c2O)C1=O	12.1
Cc1cc(C)c(-c2[nH]nc3c2C(c2ccccc2F)N(CCCO)C3=O)c(O)c1 (stereo not shown)	0.00706
CC[C@H](NC(=O)[C@H](CC1CCCCC1)OC(=O)N1CCOCC1)C(=O)c1nc2ncccc2o1	-0.207
N#C/N=C(/SCc1ccccc1)SCN1C(=O)CCC1=O	2.22
COc1ccc(N2CCN(Cc3ccccc3Cl)CC2)cc1	6.18
COc1cc(-c2noc(CCCC(=O)NC(C)(C)C)n2)cc(OC)c1OC	3.81
COC(=O)C1=CNC=C(C(=O)OC)C1c1cc(OC)c(Br)cc1OC	-0.357
COc1ccc(/C=C/C(=O)NCC(=O)N2CCC(N(C)CCN3CCOCC3)CC2)cc1OC	-2.85
C[C@@]12Cc3nc4ccccc4c(N)c3[C@]1(C)Cc1nc3ccccc3c(N)c12	-2.98
COc1ccc(OC)c(C(O)c2coc3ccc(O)c(CN(C)C)c23)c1 (stereo not shown)	5.48
COc1ccc(Cc2nnc(C(=O)NCCCOC(C)C)o2)cc1OC	-8.99

Compound	% Inhibition @ 10 uM [%]
Nc1nonc1C(=O)NCCNCc1ccccc1C(F)(F)F	0.00706
CC(C)(C)c1csc(NC(=O)c2cccnc2Cl)n1	-6.25
Cc1ccc(C(CC(=O)N2CCCCC2)N2Cc3ccccc3C2=O)cc1 (stereo not shown)	-1.65
Cc1ccc(NC2(c3nnnn3C(/C=C\c3ccc(Cl)cc3Cl)C(C)(C)C)CCCCC2)cc1 (stereo not shown)	-6.82
COc1ccc(CN2CCNCC2)c(OC)c1	2.65
CCCN1C(=O)C(NC(=O)c2cccc(C)c2)(C(F)(F)F)N=C1c1ccccc1 (stereo not shown)	-1.51
Cn1c(SCc2ccccc2Cl)nc(=O)c2c1NC(=O)CC2c1cc(F)cc(F)c1 (stereo not shown)	5.39
O=C(O)c1ccc(N2N=C(c3ccccc3)CC2c2ccccc2)cc1 (stereo not shown)	-0.446
CCC(=O)Nc1ccc(Cl)c(NC(=O)c2ccccc2C)c1	-2.74
COc1ccc(-n2nc3c(N4CCC(C(=O)NCC5CCCO5)CC4)nnc(C)c3c2C)cc1 (stereo not shown)	17.1
COc1ccc(CC(=O)Nc2ccc(C(C)C)cc2)cc1	1.41
Cc1ccc(NCCc2ccc(C)nc2)cc1	-3.38
CC(=O)c1ccc(NC(=O)c2ccc(Cl)c(Cl)c2)cc1	6.1
NS(=O)(=O)c1ccc(CCNC(=O)C2CCCN2S(=O)(=O)c2cccc3nsnc23)cc1 (stereo not shown)	-2.25
CCOC(=O)/C(C#N)=C/c1c(Oc2cc(C)ccc2C(C)C)nc2ccccn2c1=O	21.7
CCCOc1ccc(C2c3c(-c4ccccc4O)n[nH]c3C(=O)N2CCOC)cc1OCC (stereo not shown)	2.02
O=C(c1ccc(-n2c(-c3ccccc3)cc3c2CCCC3)cc1)N1CCOCC1	5.04
CCC(C)NC(=O)c1cc2c(Cl)nc3ccccc3c2s1 (stereo not shown)	1.1
O=C(CCCc1ccccc1)Nc1ccccc1O	-3.01
CCN1C(=O)C(CC(=O)Nc2ccc(C)cc2C)S/C1=N/c1ccc(C(C)=O)cc1 (stereo not shown)	1.27
Cc1ccc(/C=C2\C(=N)N3N=C(S(C)(=O)=O)SC3=NC2=O)o1	0.208
COCCNC(=O)CSc1[nH]c(-c2cccc(F)c2)nc1-c1ccccc1	0.163
COc1cccc(N2C(=O)CC(c3c[nH]c4ccccc34)C2=O)c1 (stereo not shown)	-2.78
CC1(C)CC(=O)C(/C=N/CCN2CCN(C(=O)c3ccccc3)CC2)=C(O)C1	-7.18
CC(C)CN1C(=O)C2C3C=CC(C3)C2C1=O (stereo not shown)	-2.87

Source: article PMC6919601, “Identification of Plasmodium dipeptidyl aminopeptidase allosteric inhibitors by high throughput screening” (PLoS ONE, 2019)
